Experimental data: PubChem BioAssay AID1345082 (National Center for Advancing Translational Sciences (NCATS), 2018)
The whole screen tested about 94,000 compounds, of which about 4,000 (4.3%) were called active. Inconclusive results, whose numbers are uncertain, are shown with a selection of clear calls. Calls come from the whole dose curve; as a rule, active = well fitted inhibition curve with a large enough effect; inconclusive = small, poorly fitted or top-dose-only effect; inactive = no such curve, though single readings can be large or run the other way. Potencies of inconclusive entries are doubtful fits and often do not repeat.

Assay: Cytotoxic Profiling in NIH 3T3 Cell Line of Diverse Libraries Using Quantitative High-Throughput Screening; note: nearly all actives have a fitted effect of over 55% in size
Settings: NIH 3T3 viability, CellTiter-Glo ATP luminescence, 48-72 h; series mostly up to 96.7 µM
Procedure, shortened: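 Cells were seeded at 400 per well, treated with pin-transferred compound, and kept 48 or 72 hr at 37 °C before CellTiter-Glo addition and luminescence imaging of cellular ATP.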
Potency is the fitted concentration of half-maximal effect; tags give direction and shape of the fitted curve.

SMILES | Potency
Cc1sc2cc(C(=O)NCc3cccnc3)[nH]c2c1CN1CCCCC1 | inconclusive: 28.2 µM [inhibitor, partial curve]
COc1ccc2c(C)c(C(=O)N(C)Cc3csc(C(C)C)n3)oc2c1 | inconclusive: 50.1 µM [inhibitor, partial curve, poor fit]
O=C(Cc1cccc(Cl)c1)N1CCC2(CC1)COc1ccccc1[S+](=O)([O-])N2 | inconclusive: 3.55 µM [inhibitor, full curve, poor fit]
COc1ccc(Cn2c(C3CCN(C(=O)c4ccc(C)cc4C)CC3)n[nH]c2=O)cc1 | inactive
CC(C)(C)C(=O)N1CCCC(C(=O)N2CCCC2c2nc3ccncc3[nH]2)C1 (stereo not drawn) | inactive
Cc1nc(C2CC23CCN(S(=O)(=O)c2cccnc2)CC3)no1 (stereo not drawn) | inactive
Cc1ccc(Cl)cc1N1CCN(C(=O)CCn2ccn3nc4c(c3c2=O)CCCC4)CC1 | inconclusive: 70.8 µM [inhibitor, single point]
O=C(CCC1CCN(C(=O)C2CC(=O)N(C3CC3)C2)CC1)Nc1ccc2c(c1)OCCO2 (stereo not drawn) | inactive
O=C(CCc1ccnc(N2CCOCC2)c1)NCc1cnccn1 | inactive
CN(Cc1ccc(-c2ccccc2)cc1)Cc1nccs1 | inconclusive: 35.5 µM [inhibitor, partial curve]
CN(C(=O)Cc1ccc(F)cc1)C1CCc2ccccc21 (stereo not drawn) | inconclusive: 56.2 µM [inhibitor, partial curve, poor fit]
COc1cccc(CNC(=O)c2ccc3nnc(-c4cc(C(F)(F)F)cc(C(F)(F)F)c4)n3c2)c1 | inconclusive: 22.4 µM [inhibitor, full curve, poor fit]
Cc1ccc(CC(=O)N2CC(c3nnc(-c4ccc(C)cc4)o3)C3(CCOCC3)C2)cc1 (stereo not drawn) | inactive
COc1ccc(-c2nc3cc(C(=O)N4CCCCC4)ccc3o2)cn1 | inactive
COc1ccccc1NC(=O)Nc1cccc(-c2ccc(N3CCOCC3)nn2)c1 | inconclusive: 44.7 µM [inhibitor, partial curve, poor fit]
CN1CCN(C(=O)c2cc3c(s2)CCN(C(=O)c2ccc(Cl)cc2)C3)CC1 | inconclusive: 44.7 µM [inhibitor, partial curve, poor fit]
O=C1Nc2ccccc2CN(Cc2ccccc2)C12CCNCC2 | inconclusive: 70.8 µM [inhibitor, partial curve, poor fit]
O=C(Nc1ccccc1)N1CCCC(C(=O)N2CCC(c3nc4ncccc4[nH]3)CC2)C1 (stereo not drawn) | inactive
COc1ccc(C(=O)N2CCC(c3noc(COc4ccc(F)cc4)n3)CC2)cn1 | inconclusive: 44.7 µM [inhibitor, partial curve, poor fit]
Cc1ccccc1N(C)C1CN(C(=O)c2ccccc2)C1 | inconclusive: 89.1 µM [inhibitor, single point]
CC(C)c1ccc(CC(=O)N2CCCc3ncc(C(=O)NCCN4CCCC4)cc32)cc1 | inconclusive: 56.2 µM [inhibitor, partial curve, poor fit]

SMILES | Potency
Cc1noc(C)c1S(=O)(=O)N(C)C1CCCc2ccccc21 (stereo not drawn) | inactive
CC(C)Cc1cc(C(=O)N2CCc3onc(-c4ccccc4F)c3C2)on1 | inconclusive: 31.6 µM [inhibitor, partial curve, poor fit]
COCCN1C[C@H]2COc3ccc(C)cc3[C@H]2N(C(=O)CC(C)(C)C)CCC1=O | inconclusive: 70.8 µM [inhibitor, single point]
COc1ccccc1-c1cc2c(ccn2C)c(C(=O)NCCc2ccccn2)n1 | inconclusive: 100 µM [inhibitor, partial curve]
O=C1CCCN1CCCN1C(=O)[C@@H]2C[C@@H](O)CN2C2(CN(Cc3ccc(OC(F)(F)F)cc3)C2)C1=O | inactive
O=C(NCc1ccc(C(F)(F)F)cc1)c1cc(Br)cn2ccnc12 | inactive
Cc1noc(C)c1S(=O)(=O)N1CCC2(CC1)CC(N(C)Cc1ccccc1)CCO2 (stereo not drawn) | inconclusive: 50.1 µM [inhibitor, partial curve, poor fit]
O=C(c1cccs1)N1CCC2(CC1)NCCc1c2[nH]c2ccccc12 | inconclusive: 44.7 µM [inhibitor, partial curve, poor fit]
COc1ccc(CNC(=O)c2ccc3nnc(C4CCOCC4)n3c2)cc1 | inactive
O=C(NC1CCN(C(=O)c2ccc(-c3cccs3)cc2)CC1)C1CC1 | inconclusive: 70.8 µM [inhibitor, single point]
Cc1cccc(-c2cccc(CN3CCCC(C(=O)N4CCN(C)CC4)C3)c2)c1 (stereo not drawn) | inconclusive: 31.6 µM [inhibitor, full curve, poor fit]
Cc1ccc(-n2c(C3CCN(C(=O)c4cc(F)ccc4F)CC3)n[nH]c2=O)cc1 | inconclusive: 50.1 µM [inhibitor, partial curve, poor fit]
CSc1ccc(-c2cccc(CN3CCC(NC(=O)C(C)C)CC3)c2)cc1 | inactive
CN(Cc1cccc(C(F)(F)F)c1)Cc1cccc2ccccc12 | inactive
O=C1NCC(=O)N2CC3(CCN(C(=O)C4CCCCC4)CC3)CC12 (stereo not drawn) | inactive
COc1ccc(NC(=O)C(C)(C)Oc2nn(CC3CC3)c3ccc(CN4CCCC4)cc23)cc1 | inconclusive: 50.1 µM [inhibitor, partial curve, poor fit]
Cc1ccncc1C(=O)N1CCC(C(=O)N2CCCCCCNC(=O)CC2)CC1 | inactive
Cc1ccccc1-c1[nH]nc2ncc(-c3cccnc3)nc12 | inconclusive: 50.1 µM [inhibitor, full curve, poor fit]
O=C1Nc2ccc(-c3ccc(Cl)cc3)cc2C(=O)N2CCN(C(=O)c3cccnc3)C[C@H]12 | inconclusive: 50.1 µM [inhibitor, partial curve, poor fit]
c1ccc(OCc2noc(-c3ccc(NC4CCSC4)nc3)n2)cc1 (stereo not drawn) | inconclusive: 79.4 µM [inhibitor, partial curve, poor fit]
O=C(C1CCN(c2nc(-c3ccccc3)nc3c2CCC3)CC1)N1C[C@H]2CC[C@H]1C2 | inactive

SMILES | Potency
CCc1cccc(NC(=O)N2CCc3c(nc(-c4ccc(OC)cc4)[nH]c3=O)C2)c1 | inconclusive: 70.8 µM [inhibitor, single point]
COc1ccc(C(=O)N2CCC(c3n[nH]c(=O)n3-c3ccc(C)cc3)CC2)cc1OC | inconclusive: 44.7 µM [inhibitor, partial curve, poor fit]
C#CCNC(=O)c1nc(-c2ccc(Cl)cc2Cl)c2ccccn12 | inconclusive: 50.1 µM [inhibitor, partial curve, poor fit]
COc1ccc(CN2CC[C@H](c3nc4c(C(N)=O)cccc4[nH]3)C2)cc1 | inconclusive: 112 µM [inhibitor, partial curve, poor fit]
CN(C)C[C@@H]1CN(C2CCOCC2)C[C@H]1NC(=O)c1ccco1 | inactive
Cc1ccc(-c2cn[nH]c2C2CCCN(C(=O)c3cnc(C)s3)C2)cc1 (stereo not drawn) | inconclusive: 8.91 µM [inhibitor, full curve, poor fit]
Cc1cn2nc(C(=O)NCc3ccccc3C)cc2c(N(C)Cc2ccccc2)n1 | inconclusive: 35.5 µM [inhibitor, partial curve, poor fit]
CC(C)C1=NOC2(CCN(Cc3c[nH]c4ccccc34)CC2)C1 | inactive
Cn1nc(C(=O)NC2CCN(c3cc(-c4ccccc4)[nH]n3)CC2)c2ccccc21 | inconclusive: 70.8 µM [inhibitor, partial curve, poor fit]
Cc1ccc(-n2nc(C)c([C@H]3C=C[C@@H](OC(=O)Nc4cccc(C(F)(F)F)c4)C3)c2C)cc1Cl | inconclusive: 39.8 µM [inhibitor, partial curve, poor fit]
NC(=O)c1cccc(-c2ncc3c(n2)OCCN(Cc2ccc(F)cc2F)C3=O)c1 | inconclusive: 25.1 µM [inhibitor, full curve, poor fit]
COc1cc(OC)cc(C(=O)N2CCC3(CC2)NC(=O)N(c2cccc(Cl)c2)N3)c1 | inconclusive: 44.7 µM [inhibitor, partial curve, poor fit]
Cc1nc2cnccn2c1C(=O)NCc1cccc(C(F)(F)F)c1 | inconclusive: 20 µM [inhibitor, partial curve, poor fit]
Cc1noc(C)c1[S+](=O)([O-])N1CCC(c2nn(-c3ccccc3)c(=O)[nH]2)CC1 | inconclusive: 44.7 µM [inhibitor, partial curve, poor fit]
O=Cc1cccc(-c2ccc(C(=O)O)o2)c1 | inactive
COc1ccc2c(c1)C(CN1CCN(CC(=O)OC(C)(C)C)CC1)=CC(C)(C)CO2 | inconclusive: 11.2 µM [inhibitor, full curve, poor fit]
CC(C)CCN1CCC(C2CCN(Cc3ccccn3)C2)CC1 (stereo not drawn) | inactive
O=C1NC(=NC2CCCC2)C2(CCN(CC3CC3)C2)N1c1cccnc1 (stereo not drawn) | inconclusive: 17.8 µM [inhibitor, full curve, poor fit]
O=C(Cc1cccc(Cl)c1)NC1CCN(c2cc(-c3cccs3)[nH]n2)C1 (stereo not drawn) | inconclusive: 28.2 µM [inhibitor, full curve]
COc1ccc(-c2nc(N3CCOCC3)cc3c2CN(CC2CC2)C3=O)cn1 | inconclusive: 10 µM [inhibitor, full curve, poor fit]
O=C(NC1CC1)c1cc2c(=O)[nH]c(-c3ccccc3)cn2n1 | inconclusive: 44.7 µM [inhibitor, partial curve, poor fit]
